Reference: a collection of fitness landscapes (doi:10.1126/science.1257360)
This is one part of the list.

B1: PhoQ; a variant is named by its letters at X, in order, P23837 (parent)
chain: MKKLLRLFFPLSLRVRFLLATAAVVLVLSLAYGMVALIGYSVSFDKTTFRLLRGESNLFYTLAKWENNKLHVELPENIDKQSPTMTLIYDENGQLLWAQRDVPWLMKMIQPDWLKSNGFHEIEADVNDTSLLLSGDHSIQQQLQEVREDDDDAEMTHSVAVNVYPATSRMPKLTIVVVDTIPVELKSSYMVWSWFIYVLSANLLLVIPLLWVAAWWSLRPIEALAKEVRELEEHNRELLNPATTRELTSLVRNLNRLLKSERERYDKYRTTLTDLTHSLKTPLXXLQXXLRSLRSEKMSVSDAEPVMLEQISRISQQIGYYLHRASMRGGTLLSRELHPVAPLLDNLTSALNKVYQRKGVNISLDISPEISFVGEQNDFVEVMGNVLDNACKYCLEFVEISARQTDEHLYIVVEDDGPGIPLSKREVIFDRGQRVDTLRPGQGVGLAVAREITEQYEGKIVAGESMLGGARMEVIFGRQHSAPKDE

Variants of: B1
Test: enrichment ratio after two sorts for PhoP signalling (ratio (wild type AVST 3.29)); higher = more functional
Conditions: with PhoP (E. coli)

| Variant | enrichment ratio |
| --- | --- |
| HPRT | ≤ 0.25 |
| DCGW | ≤ 0.25 |
| VSNG | ≤ 0.25 |
| TWNQ | ≤ 0.25 |
| PDAT | ≤ 0.25 |
| QSKI | ≤ 0.25 |
| PLTA | ≤ 0.25 |
| GQEL | ≤ 0.25 |
| NHMM | ≤ 0.25 |
| KIKP | ≤ 0.25 |
| NQTM | ≤ 0.25 |
| TGGN | 13.9 |
| LTLN | ≤ 0.25 |
| RIND | ≤ 0.25 |
| MMNC | ≤ 0.25 |
| YYLL | ≤ 0.25 |
| YAWS | ≤ 0.25 |
| GRYH | ≤ 0.25 |
| PPYL | ≤ 0.25 |
| YCFK | ≤ 0.25 |
| WELP | ≤ 0.25 |
| LIER | ≤ 0.25 |
| MYMY | ≤ 0.25 |
| QFPC | ≤ 0.25 |

| Variant | enrichment ratio |
| --- | --- |
| YESC | ≤ 0.25 |
| ERLE | ≤ 0.25 |
| SLPY | ≤ 0.25 |
| TRAT | ≤ 0.25 |
| AWGY | ≤ 0.25 |
| NYGE | ≤ 0.25 |
| ICRG | ≤ 0.25 |
| MFVI | ≤ 0.25 |
| RMGM | ≤ 0.25 |
| AWHH | ≤ 0.25 |
| KPKI | ≤ 0.25 |
| HQKR | ≤ 0.25 |
| QGHY | 10.4 |
| GTPS | ≤ 0.25 |
| RGPD | ≤ 0.25 |
| RPPN | ≤ 0.25 |
| QMFH | ≤ 0.25 |
| KQCS | ≤ 0.25 |
| PMGQ | ≤ 0.25 |
| FQCA | ≤ 0.25 |
| HILF | ≤ 0.25 |
| NQHG | ≤ 0.25 |
| NDSI | ≤ 0.25 |
| SACH | 3.76 |

| Variant | enrichment ratio |
| --- | --- |
| VKAC | ≤ 0.25 |
| RGYM | ≤ 0.25 |
| NWQY | ≤ 0.25 |
| LEVI | ≤ 0.25 |
| YWLW | ≤ 0.25 |
| VCGR | ≤ 0.25 |
| FDGN | ≤ 0.25 |
| WEQP | ≤ 0.25 |
| MTWR | ≤ 0.25 |
| LRQA | ≤ 0.25 |
| LKRA | ≤ 0.25 |
| KEGC | ≤ 0.25 |
| FLMV | ≤ 0.25 |
| ACFM | ≤ 0.25 |
| LGCE | ≤ 0.25 |
| TASC | 12.7 |
| VAGY | 1.53 |
| NETM | ≤ 0.25 |
| PTNM | ≤ 0.25 |
| DRMP | ≤ 0.25 |
| QFHS | ≤ 0.25 |
| QATW | ≤ 0.25 |
| PWNT | ≤ 0.25 |
| MACW | ≤ 0.25 |

| Variant | enrichment ratio |
| --- | --- |
| GRPV | ≤ 0.25 |
| PKSW | ≤ 0.25 |
| AWMS | ≤ 0.25 |
| NLHQ | ≤ 0.25 |
| MRRY | ≤ 0.25 |
| PLTP | ≤ 0.25 |
| KINA | ≤ 0.25 |
| HCGD | ≤ 0.25 |
| VYWY | ≤ 0.25 |
| WALC | 1.58 |
| RWLC | ≤ 0.25 |
| EKDP | ≤ 0.25 |
| SSIW | ≤ 0.25 |
| MQGM | ≤ 0.25 |
| RAFN | 0.299 |
| WMHE | ≤ 0.25 |
| AACY | ≤ 0.25 |
| TNFS | ≤ 0.25 |
| MTYM | 5.64 |
| MPVW | ≤ 0.25 |
| IPAV | ≤ 0.25 |
| VDAS | ≤ 0.25 |
| FPGY | ≤ 0.25 |
| MSSW | ≤ 0.25 |

| Variant | enrichment ratio |
| --- | --- |
| KVMF | ≤ 0.25 |
| PKGD | ≤ 0.25 |
| EQNC | ≤ 0.25 |
| ARRQ | ≤ 0.25 |
| WSVP | ≤ 0.25 |
| DSCK | ≤ 0.25 |
| FNVT | ≤ 0.25 |
| KCAY | ≤ 0.25 |
| ELDV | ≤ 0.25 |
| RFVW | ≤ 0.25 |
| IAVD | ≤ 0.25 |
| RGGR | ≤ 0.25 |
| SQCR | 5.05 |
| KYGK | ≤ 0.25 |
| DSQE | ≤ 0.25 |
| PCWI | ≤ 0.25 |
| KCIC | ≤ 0.25 |
| QCHY | ≤ 0.25 |
| VWGP | ≤ 0.25 |
| RFNM | ≤ 0.25 |
| EGEF | ≤ 0.25 |
| SYNV | ≤ 0.25 |
| KKGT | ≤ 0.25 |
| LEVL | ≤ 0.25 |

| Variant | enrichment ratio |
| --- | --- |
| HQNF | ≤ 0.25 |
| RPAD | ≤ 0.25 |
| MRTT | ≤ 0.25 |
| RLPY | ≤ 0.25 |
| PHIF | ≤ 0.25 |
| EKCS | ≤ 0.25 |
| PRKC | ≤ 0.25 |
| LMKY | ≤ 0.25 |
| KITA | ≤ 0.25 |
| VFYM | ≤ 0.25 |
| LHTH | ≤ 0.25 |
| NPPT | ≤ 0.25 |
| GPMS | ≤ 0.25 |
| SVYL | ≤ 0.25 |
| MEAE | ≤ 0.25 |
| FCKM | ≤ 0.25 |
| MYSF | ≤ 0.25 |
| KYTV | ≤ 0.25 |
| VMYM | ≤ 0.25 |
| TMTT | 10.4 |
| MYTC | ≤ 0.25 |
| LCYR | ≤ 0.25 |
| VQGR | ≤ 0.25 |
| HDYG | ≤ 0.25 |

| Variant | enrichment ratio |
| --- | --- |
| TYEV | ≤ 0.25 |
| FTWV | ≤ 0.25 |
| PSPM | ≤ 0.25 |
| IFPH | 0.265 |
| GREL | ≤ 0.25 |
| GWNV | ≤ 0.25 |
| KTEG | ≤ 0.25 |
| IAPN | ≤ 0.25 |
| QVPT | ≤ 0.25 |
| LDLF | ≤ 0.25 |
| HPCQ | ≤ 0.25 |
| SYAY | ≤ 0.25 |
| YRNN | 1.24 |
| ECNQ | ≤ 0.25 |
| SNIW | ≤ 0.25 |
| NLAF | ≤ 0.25 |
| HRLW | ≤ 0.25 |
| KAWR | ≤ 0.25 |
| GFWW | 1.03 |
| ISIA | ≤ 0.25 |
| IREA | ≤ 0.25 |
| MPCS | ≤ 0.25 |
| YHDI | ≤ 0.25 |
| EYDC | ≤ 0.25 |

| Variant | enrichment ratio |
| --- | --- |
| FSYE | ≤ 0.25 |
| VQKD | ≤ 0.25 |
| KKEF | ≤ 0.25 |
| PVPK | ≤ 0.25 |
| GLFK | ≤ 0.25 |
| YNTY | ≤ 0.25 |
| LGPI | ≤ 0.25 |
| VANI | ≤ 0.25 |
| MYGL | ≤ 0.25 |
| VVLA | ≤ 0.25 |
| ESQT | ≤ 0.25 |
| LREF | ≤ 0.25 |
| AYFF | ≤ 0.25 |
| WWSW | ≤ 0.25 |
| NGWQ | ≤ 0.25 |
| AKLT | 6.1 |
| SKYW | ≤ 0.25 |
| MKRQ | ≤ 0.25 |
| IKGH | ≤ 0.25 |
| KHMT | ≤ 0.25 |
| RQYT | ≤ 0.25 |
| TCGF | 12.5 |
| TYMF | ≤ 0.25 |
| WLAL | ≤ 0.25 |

| Variant | enrichment ratio |
| --- | --- |
| PGAL | ≤ 0.25 |
| GSYN | ≤ 0.25 |
| LYKC | ≤ 0.25 |
| HTCP | ≤ 0.25 |
| HSSE | ≤ 0.25 |
| MTEN | ≤ 0.25 |
| WSGV | ≤ 0.25 |
| NLAV | ≤ 0.25 |
| NKII | ≤ 0.25 |
| TACV | 9.39 |
| RGTR | ≤ 0.25 |
| LTHH | ≤ 0.25 |
| RRMK | ≤ 0.25 |
| PPTM | ≤ 0.25 |
| NYCE | ≤ 0.25 |
| GLAD | ≤ 0.25 |
| EMRN | ≤ 0.25 |
| SDWQ | ≤ 0.25 |
| FPGI | ≤ 0.25 |
| PGWH | ≤ 0.25 |
| KYKR | ≤ 0.25 |
| HKRY | ≤ 0.25 |
| TGYE | ≤ 0.25 |
| PTFL | ≤ 0.25 |

| Variant | enrichment ratio |
| --- | --- |
| LQMT | ≤ 0.25 |
| HQDF | ≤ 0.25 |
| EAQA | ≤ 0.25 |
| PFDV | ≤ 0.25 |
| GGNQ | ≤ 0.25 |
| PHHG | ≤ 0.25 |
| MWLN | ≤ 0.25 |
| IFKV | ≤ 0.25 |
| LPYE | ≤ 0.25 |
| HISY | ≤ 0.25 |
| IQAH | ≤ 0.25 |
| IDCM | ≤ 0.25 |
| RLRR | ≤ 0.25 |
| LIYF | ≤ 0.25 |
| THWF | ≤ 0.25 |
| IIAQ | ≤ 0.25 |
| YMEY | ≤ 0.25 |
| VYAE | ≤ 0.25 |
| KNNK | ≤ 0.25 |
| EELQ | ≤ 0.25 |
| RVET | ≤ 0.25 |
| QHRM | ≤ 0.25 |
| FMVY | ≤ 0.25 |
| AEEA | ≤ 0.25 |

| Variant | enrichment ratio |
| --- | --- |
| RSYV | ≤ 0.25 |
| WELT | ≤ 0.25 |
| QRKY | ≤ 0.25 |
| KSWA | ≤ 0.25 |
| DLFQ | ≤ 0.25 |
| YIAF | 0.549 |
| RRNH | ≤ 0.25 |
| MSSD | ≤ 0.25 |
| GDTH | ≤ 0.25 |
| FGWW | ≤ 0.25 |
| NNDI | ≤ 0.25 |
| FEIK | ≤ 0.25 |
| FADP | ≤ 0.25 |
| QVWK | ≤ 0.25 |
| SWNN | ≤ 0.25 |
| PNSN | ≤ 0.25 |
| DYLL | ≤ 0.25 |
| KCGC | ≤ 0.25 |
| EITN | ≤ 0.25 |
| AFTS | ≤ 0.25 |
| LSMT | ≤ 0.25 |
| IRFQ | ≤ 0.25 |
| DAEY | ≤ 0.25 |
| IWRQ | ≤ 0.25 |

| Variant | enrichment ratio |
| --- | --- |
| TFES | ≤ 0.25 |
| IDTT | ≤ 0.25 |
| WGSI | ≤ 0.25 |
| GCIH | ≤ 0.25 |
| TIPY | ≤ 0.25 |
| GHKG | ≤ 0.25 |
| QPDC | ≤ 0.25 |
| SICW | ≤ 0.25 |
| LWYL | ≤ 0.25 |
| WETW | ≤ 0.25 |
| RFMT | ≤ 0.25 |
| QPYG | ≤ 0.25 |
| IHKD | ≤ 0.25 |
| SIIG | 2.57 |
| HPGQ | ≤ 0.25 |
| EIQG | ≤ 0.25 |
| PAAV | ≤ 0.25 |
| HLVL | ≤ 0.25 |
| NPFM | ≤ 0.25 |
| GENC | 0.253 |
| INIL | ≤ 0.25 |
| WHCH | ≤ 0.25 |
| RTSV | ≤ 0.25 |
| WGFL | ≤ 0.25 |

| Variant | enrichment ratio |
| --- | --- |
| EFGN | ≤ 0.25 |
| ESQR | ≤ 0.25 |
| GWNK | ≤ 0.25 |
| FNVQ | ≤ 0.25 |
| KLQR | ≤ 0.25 |
| GSWY | ≤ 0.25 |
| PIMY | ≤ 0.25 |
| LYWM | ≤ 0.25 |
| LTLS | ≤ 0.25 |
| MERG | ≤ 0.25 |
| YTIG | 1.45 |
| WLRN | ≤ 0.25 |
| WYRK | ≤ 0.25 |
| SDPK | ≤ 0.25 |
| QKHI | ≤ 0.25 |
| MEPR | ≤ 0.25 |
| QVDN | 11.3 |
| AGDM | ≤ 0.25 |
